B1: LINE1-full (parent)
chain: UACGUAGGUGGUUUUCCCCUGAUAGUGCUAAGGGGGCCUGGAAGUUUGGACUGGGCAGAGCUCAACACAGCGUGGCAAAGUGGCUGUGGCUAGACUGCCUCUCUGGAUUCCUCGUCACUCAGCAGGGCAUCUCUGAGAGAAAUGCC

Read counts are not given, so values of variants with three or more changes are uncertain.

In the data set the parent is B1. The data set is described as follows: self-cleavage, relative activity (ratio to wild type); higher = more cleavage; in vitro, sequencing; the parent is a self-cleaving ribozyme.
With UACGUAGGUGGUUCUCCCCUGAUAGUGCUAAGGGGGCCUGGAAGUUUGGACUGGGCAGAGCCCAACACAGCGUGGCAAAGUGGCUGAGGCUAGACUGCCUCUCUGGAUUCCUCGUCACUCAGCAGGGCAUCUCUGAGAGAAAUGCC, the self-cleavage was determined as 0.07.

Consider UUCGUAGGUGGUUUUCCCCUGAUAGAGCUAAGGGGGCCUGGGAGUUUGGACUGGGCAGAGCUCAACACAGCGUGGCAAAGUGGCUGUGGCUAGACUGCCUCUCUGAAUUCCUCGUCACUCAGCAGGGCAUCUCUGAGAGAAAUGCC, for which the self-cleavage stood at 0.88.

On to UACGUAGGUGGUUUUCCCCUGAUAGUGCUAAGGGGGCCUGGAAGUAUGGACUGGGCAGAGCUCAACGCAGCGUGGCAAAGUGGCUGAGGCUAGACUGCCUCUCUGGAUUCCUCGUCACUCAGCAGGGCACCUCUGAGAGAAUUGCC, for which the self-cleavage came to 0.07.

For the variant UACGUAGGUGGUUUUCCCCUGAUAGUGCUAAGGGGGCCUGGGAGUUUGGACUGGGCAGAGCUCAACUCAGCGUGGCGAAGUGGCUGUGGCUAGUCUGCCUCUCUGGAUUCCUCGUCACUCAGCAGGGCAUCUCUGAGAGAAAUGCC, the self-cleavage worked out at 0.13.

UACGUAGGUGGUUUUCCCCUGAUAGUGCUAAGGGGGACUGGAAGUUCGGACUGGGCAGAGCUCAACACAGCGUGGCAAAGUGGCCGUGGCUAGACUGCCUCUCUGGAUUCCCCGUCACUCAGCAGGGCAUCUCUGAGAGAAAUGCC: the self-cleavage was 0.2.

Regarding UACGUAGGUGGUUUUCCCCUGAUAGUGCUAAGGGGGCCUGGAAGUUUGGACUGGGCAGAGCUCAACACAGCGAGGCAAAGUGGCUGCGGCUAGACUGCCUCUCUGGAUUCCUCGUCACUCAGCAGGGCAUCUCUGAGAGAUGUGCC, the self-cleavage is 0.1.

On to UACGUAGGUGGUUUUCCCCUGAUAGUGCUAAGGGGGCCUGGAAGUUUGGACUGGGCAGAGCUCAACACAGCGUGGCGAGGUGGCUGCGGCUAGACAGCCUCUCUGGAUUCCUCGUCACUCAGCAGGGCAUCUCUGAGAGAAAUGCC, for which the self-cleavage is 0.21.

Regarding UACGUAGGUGGUUUACCCCUGAUAGUGCUAAGGGGGCCUGGAAGUUUGGACUGGGCAGAGCUCAAUACAGCGUGGCAAAGUGGCUGUGGCUAGACUGCCUCUCUGGAUUCCUCGCCACUCAGCAGGGCAUCUCUGAGAGAAAUGCC, the self-cleavage turned out to be 0.02.

As for UACGUAGGUGGUAUUCCCCUGAUAGUGCUAAGGGGGCCUGGAAGUUUGGACUGGGCAGAGCUCAACACAGCGUGGCAAAGUGACUGUGGCUAGACUGCCCCUCUGGUUUCCUCGUCACUCAGCAGGGCUUCUCUGAGAGGAAUGCC, the self-cleavage stood at 0.26.

For UACGUAGGUGGCUUUCCCCUGAUAGUGCUAUGGGGGCCUGGAAGUUUGGACAGGGCAGAGCUCAACACAGCGUGGCAAAGUGGCUGUGGCUAGACUGCCUCUCUGGAUUCCUCGUCACUCAGCAGGGCAUCUCUGAGAGAAAUGCC, the self-cleavage was determined as 0.63.

Regarding UACGUAGGUGGUUUUCCCCUGAUAGUGCUAAGGGGGCCUGGAAGUUUGGACUGGGCAGAGCUCAACACAGCGUGGCAAAGUGGCUGUGGCUAGACUGCCUCCCUGGAUUCCUCGUCACUCAGCAGGGCAUCCCUGAGAGACAUGCC, the self-cleavage was determined as 2.45.

As for UACGUAGGUGGUUUUCCCCCGAUAGUGCUAAGGGGGCCUGGGAGUUUGGAUUGGGCAGAGCUCAACACAGCGUGGCAAAGUGGCUGUGGCUAGACUGCCUCUCUGGAUUCCUCGUCUCUCAGCAGGGCAUCUCUGAGAGAAAUGCC, the self-cleavage was determined as 1.39.

UACGUACGCGGUUUUCCCCCGAUAGUGCUGAGGGGGCCUGGAAGUUUGGACUGGGCAGAGCUCAACACAGCGUGGCAAAGUGGCUGUGGCUAGACUGCCUCUCUGGGUUCCUCGUCACUCAGCAGGGCAUCUCUGAGAGAAAUGCC: the self-cleavage was found to be 0.

As to UACGCAGGUGGUUUUCCCCUGAUAGUGCUAAGGGGGCCUGGAAGUUUGGACUGGGCAGAGCUCAACACAGCGUGGCAAAGUGGCUGUGGCUAGACUGCCUCUCUGGAUUCCUCGUCACUCAGCAGGGCUUCUCUGAGAGAGAUGCC, the self-cleavage worked out at 1.11.

In the case of UACGUAGGCGGUUUUCCCUUGAUAGUGCUAAGGGGGCCUGGAAGUUUGGACUGGGCAGAGCUCAACUCAGCGUGGCAACGUGGCUGUGGCUAGACUGCCUCUCUGGAUUCCUCGUCACUCAGCAGGGCAUCUCUGGGAGAAAUGCC, the self-cleavage turned out to be 0.3.

As to UACGUAGGUGGUUUUCCCCUGAUAGUGCUAAGGGGGCCUGGAAGUUUGGACUGGGCGGAGCACAACACAGCGAGGCAAAGUGGCUGUGGCUAGACUGCCUCUCUGGAUUCCUCGUCACUCAGCAGGGCAUCUCUGAGAGAAAUGCC, the self-cleavage came to 0.02.

Take UACGUAGGUGGUUUUCCCCCGAUAGUGCUAAGGGGGCCUGGGAGUUUGGACUGGGCAGAGCUCAACACAGCGUGGCUAAGUGGCUGUGGCUAGACUGCCUCUCUGGAUUCCUCGUCACUCAGCAGGGCAUCUCUGAGAGAGAUGCC: the self-cleavage came out at 1.62.

As for UACGUAGGUGGUCUUCCCCUGAUAGUGCUAAGGGGGCCUGGAAGUUUGGACUGGGCAGAGCUCAACACAGCGUGGCAAAGUGGCUGUGGCUAGACAGCCUCCCUGGAUUCCUCGUCACUCAGCAGGGCAUCCCUGAGAGAAAUGCC, the self-cleavage turned out to be 0.

On to UACGUAGGUGGUUUUCCCCUGAUAGUGCUUAGGGGGCCUGGAAGGUUGGACUGGGCAGAGCUCGACACAGCGUGGCAAAGUGGCUGUGGCUAGACUGCCUCUCUGGAUUCCUCGUCACUCAGCAGGGCAUCUCGGAGAGAAACGCC, for which the self-cleavage was 0.

In the case of UACGUAUGUGGUUUUCCCCUGAUAGUGCUAAGGGGGCCUGGAAGUUUGGACUGGGCAGAGCUCAACUCAGCGUGGCAAAGUGGCUGUGGCUAGACUGCCUCUCUGGAUUCCUCGUCACUCAGCAGGGCAUCUCUGAGGGAAAUGCC, the self-cleavage turned out to be 0.21.

Source of the values: the RNAGym collection of RNA variant scans (doi:10.7554/elife.90254).
